Some of the results follow. Many values rest on one well or one pass, so single values are uncertain.

Common to all, as to assay: cell count relative to DMSO control; melanoma cells; higher = more viable cells
Conditions in all cases: library dose: low library concentration; 72 h

In test [1] the test system is MZ2-MEL.
The test system of test [2] is MeWo.
Test [3] has as its system RPMI7951.
Test [4] has as its system RVH-421.
Test [5] deals with SkMel28.
The test system of test [6] is SkMel2.
In test [7] the test system is SkMel30.
Test [8] deals with SkMel5.
The test system of test [9] is UACC257.
The subject of test [10] is UACC62.
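Also: cell number obtained by counting DAPI-stained nuclei in high-throughput microscope images with image analysis software, screen run in 1,536-well plates.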

For `Cc1cn(-c2cc(NC(=O)c3ccc(C)c(Nc4nccc(-c5cccnc5)n4)c3)cc(C(F)(F)F)c2)cn1` [nilotinib] + Oc1cc(-c2nc(-c3ccccc3)[nH]c2-c2ccncc2)ccc1Cl [L779450] (first compound 0.2 µM, partner dose 0.2 µM), the cell count in test [1] came out at 83.6%; in test [2] it was 106%; in test [3], 112%; in test [4], 83.5%; in test [5] it was 84.9%; in test [6], 0.962%. The cell count in test [7] was found to be 103%; in test [8], 106%; in [9], 93.8%; in [10], 72%.

On to `Cn1c(=O)n(-c2ccc(C(C)(C)C#N)cc2)c2c3cc(-c4cnc5ccccc5c4)ccc3ncc21` + Cc1cc(N2CCOCC2)cc2[nH]c(-c3c(NC[C@@H](O)c4cccc(Cl)c4)cc[nH]c3=O)nc12 [BMS536924] (first compound 0.004 µM, partner dose 0.2 µM), for which the cell count in test [1] was 93.9%; in [2], 75.6%; in test [3] it was 91.2%; in [4], 87%; in test [5] it was 77.9%; in test [6], 89.8%. The cell count was 69.3% in test [7], 110% in [8], 95.6% in test [9] and 85.4% in [10].

Turning to `CC(C)C[C@H](NC(=O)[C@H](Cc1ccccc1)NC(=O)c1cnccn1)B(O)O` [Bortezomib] + C=CCn1c(=O)c2cnc(Nc3ccc(N4CCN(C)CC4)cc3)nc2n1-c1cccc(C(C)(C)O)n1 [MK1775] (first compound 0.001 µM, partner dose 0.02 µM), the cell count in [1] amounted to 96.3%; in [2] it was 81.5%; in test [3], 66%; in [4], 64.1%; in test [5], 79.5%; in test [6], 92.7%. Moreover, the cell count in test [7] stood at 89.4%; in [8], 95.8%; in test [9] it was 86.2%; in test [10] it was 69.3%.

For the compound `Cn1c(=O)n(-c2ccc(C(C)(C)C#N)cc2)c2c3cc(-c4cnc5ccccc5c4)ccc3ncc21` + O=C(Nc1cccc(Cl)c1)Nc1ncc(CCNc2ncnc3ccsc23)s1 [SNS314] (first compound 0.004 µM, partner dose 0.0008 µM), the cell count in [1] amounted to 96.9%; in test [2], 81.6%; in test [3] it was 97.8%; in test [4] it was 89.1%; in test [5] it was 81.3%; in test [6], 76.6%. In addition, the cell count in [7] was 86.4%; in [8], 127%; in [9], 97.2%; in test [10], 88.8%.

Regarding `CC(C)C[C@H](NC(=O)[C@H](Cc1ccccc1)NC(=O)c1cnccn1)B(O)O` [Bortezomib] + O=C(O)C(=O)Nc1sc2c(c1C(=O)O)CCNC2 [TCS401] (first compound 0.001 µM, partner dose 1.66667 µM), the cell count was 94.2% in [1]; 98.8% in test [2]; 94.3% in test [3]; 81.5% in test [4]; 102% in [5]; 95.3% in [6]. Also, the cell count in test [7] was found to be 86.4%; in [8], 102%; in test [9], 101%; in test [10], 83.6%.

With `Cc1cc(Nc2cc(N3CCN(C)CC3)nc(/C=C/c3ccccc3)n2)n[nH]1` + CC1(C)NC(=O)N(c2ccc([N+](=O)[O-])c(C(F)(F)F)c2)C1=O [nilutamide] (first compound 0.04 µM, partner dose 1 µM), the cell count in [1] stood at 104%; in test [2] it was 94.2%; in test [3] it was 95%; in test [4], 124%; in test [5] it was 90.8%; in [6], 99.4%. The cell count in test [7] came out at 105%; in test [8], 83.4%; in [9], 95.4%; in test [10], 88.5%.

For `CC(C)C[C@H](NC(=O)[C@H](Cc1ccccc1)NC(=O)c1cnccn1)B(O)O` [Bortezomib] + COc1cc2c(Oc3ccc4[nH]c(C)cc4c3F)ncnc2cc1OCCCN1CCCC1 [cediranib] (first compound 0.001 µM, partner dose 0.4 µM), the cell count in [1] amounted to 81.5%; in [2] it was 93.7%; in test [3] it was 98.8%; in test [4] it was 61.9%; in [5], 96.9%; in [6], 84.3%. For the same compound, the cell count was determined as 69.1% in test [7], 106% in [8], 74% in test [9] and 76% in test [10].

With `COc1ccc(C2=N[C@@H](c3ccc(Cl)cc3)[C@@H](c3ccc(Cl)cc3)N2C(=O)N2CCNC(=O)C2)c(OC(C)C)c1` [Nutlin-3] + COc1cc(N2CCC(N3CCN(C)CC3)CC2)ccc1Nc1ncc(Cl)c(Nc2ccccc2S(=O)(=O)C(C)C)n1 [NVP-TAE684] (first compound 0.1 µM, partner dose 0.08 µM), the cell count in test [1] amounted to 97.5%; in test [2] it was 88.3%; in [3] it was 90.4%; in [4], 83.2%; in test [5], 93.7%; in test [6], 84.3%. Also, the cell count in test [7] turned out to be 79.8%; in [8], 102%; in [9], 82.2%; in test [10], 73.3%.

As for `Cc1cn(-c2cc(NC(=O)c3ccc(C)c(Nc4nccc(-c5cccnc5)n4)c3)cc(C(F)(F)F)c2)cn1` [nilotinib] + COc1cc(N2CCC(N3CCN(C)CC3)CC2)ccc1Nc1ncc(Cl)c(Nc2ccccc2S(=O)(=O)C(C)C)n1 [NVP-TAE684] (first compound 0.2 µM, partner dose 0.08 µM), the cell count in test [1] came out at 92.6%; in test [2] it was 91.4%; in test [3], 92%; in test [4] it was 97.3%; in [5], 88.2%; in test [6] it was 77.8%. Besides, the cell count is 69.7% in test [7], 86% in test [8], 52.5% in test [9] and 86.4% in [10].

Turning to `Cc1cn(-c2cc(NC(=O)c3ccc(C)c(Nc4nccc(-c5cccnc5)n4)c3)cc(C(F)(F)F)c2)cn1` [nilotinib] + COc1ccc(COc2ccc(Cc3cnc(N)nc3N)cc2OC)cc1 [GW2580] (first compound 0.2 µM, partner dose 1 µM), the cell count turned out to be 92.1% in test [1]; 101% in test [2]; 98.8% in test [3]; 119% in test [4]; 111% in test [5]; 92.3% in test [6]. The cell count stood at 85.6% in test [7], 98.6% in [8], 103% in test [9] and 105% in [10].

For the compound `CC(C)C[C@H](NC(=O)[C@H](Cc1ccccc1)NC(=O)c1cnccn1)B(O)O` [Bortezomib] + c1cc(-c2cnn3cc(-c4ccc(OCCN5CCCCC5)cc4)cnc23)ccn1 [Dorsomorphin] (first compound 0.001 µM, partner dose 0.4 µM), the cell count in test [1] came out at 70.3%; in test [2], 90.8%; in [3], 95.5%; in test [4], 53.9%; in test [5] it was 97.8%; in test [6] it was 111%. In addition, the cell count in [7] was 73.3%; in test [8], 89.8%; in test [9], 68.8%; in [10] it was 62.3%.
